In PMC10075517, “Design, synthesis and biological evaluation of novel histone deacetylase (HDAC) inhibitors derived from β-elemene scaffold” (Journal of Enzyme Inhibition and Medicinal Chemistry, 2023):
Read-outs that look alike come from different tables or passages of the source.

Columns and labels:
[1] = biological target: HDAC1 (Homo sapiens, UniProt Q13547); assay: biochemical
[2] = system: MV4-11 cells; assay: In vitro anti-proliferative assay (CCK8), MV4-11
[3] = system: SU-DHL-2 cells; assay: In vitro anti-proliferative assay (CCK8), SU-DHL-2
[4] = system: HEL cells; assay: In vitro anti-proliferative assay (CCK8), HEL; details: Homo sapiens, 72 h, read-out: IC50 HEL
[5] = system: WSU-DLCL-2 cells; assay: Cell cycle assay (propidium iodide flow cytometry); type: cell-based; details: 72 h
Procedure: In addition to studying the effects of compounds 27f and 39f on cell apoptosis, we also explored their effects on cell cycle progression by flow cytometry. […] WSU-DLCL-2 cells were treated with compounds 27f and 39f at 1 µM and 5 µM for 72 h, respectively.
After treatment, cells were collected and fixed with 70% pre-cold ethanol in PBS and stored at −20 °C overnight. Then washed the cells with PBS twice, and incubated with 100 µg/ml RNase A at 37 °C for 1 h, stained with propidium iodide for 30 min avoid light at room temperature.

[6] = biological target: T1, HDAC6 (Homo sapiens, UniProt Q9UBN7); assay: biochemical
T1 sequence (Q9UBN7 1-1215): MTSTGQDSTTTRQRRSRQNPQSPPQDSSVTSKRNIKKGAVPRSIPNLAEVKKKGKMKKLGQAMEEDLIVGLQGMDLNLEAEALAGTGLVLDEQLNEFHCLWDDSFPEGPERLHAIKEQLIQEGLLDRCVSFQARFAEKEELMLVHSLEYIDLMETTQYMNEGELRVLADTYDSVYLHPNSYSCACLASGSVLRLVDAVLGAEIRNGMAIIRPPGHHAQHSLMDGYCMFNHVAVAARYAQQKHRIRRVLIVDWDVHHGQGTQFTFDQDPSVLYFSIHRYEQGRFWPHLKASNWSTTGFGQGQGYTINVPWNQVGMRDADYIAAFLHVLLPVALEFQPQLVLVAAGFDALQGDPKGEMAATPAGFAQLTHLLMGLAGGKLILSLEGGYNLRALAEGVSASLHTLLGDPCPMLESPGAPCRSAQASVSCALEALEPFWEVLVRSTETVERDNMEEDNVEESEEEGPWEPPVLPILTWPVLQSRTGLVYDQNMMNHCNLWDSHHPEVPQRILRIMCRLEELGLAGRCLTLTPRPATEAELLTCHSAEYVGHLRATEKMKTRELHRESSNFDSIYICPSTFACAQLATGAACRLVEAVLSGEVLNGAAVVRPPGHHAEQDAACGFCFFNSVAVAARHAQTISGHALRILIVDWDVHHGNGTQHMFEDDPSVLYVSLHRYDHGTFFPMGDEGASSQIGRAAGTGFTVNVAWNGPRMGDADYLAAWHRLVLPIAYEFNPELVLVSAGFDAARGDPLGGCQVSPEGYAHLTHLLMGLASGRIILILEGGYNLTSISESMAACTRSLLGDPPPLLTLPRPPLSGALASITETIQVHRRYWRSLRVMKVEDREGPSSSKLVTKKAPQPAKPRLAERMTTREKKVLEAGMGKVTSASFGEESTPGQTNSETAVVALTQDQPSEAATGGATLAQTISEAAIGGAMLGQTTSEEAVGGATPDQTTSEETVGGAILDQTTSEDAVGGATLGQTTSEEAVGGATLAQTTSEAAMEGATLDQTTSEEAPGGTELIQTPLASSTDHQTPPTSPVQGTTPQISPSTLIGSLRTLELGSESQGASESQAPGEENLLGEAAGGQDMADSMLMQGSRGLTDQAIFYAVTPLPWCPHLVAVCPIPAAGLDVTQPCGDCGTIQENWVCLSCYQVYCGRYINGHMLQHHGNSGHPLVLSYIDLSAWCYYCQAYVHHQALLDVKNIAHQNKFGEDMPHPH

[7] = system: WSU-DLCL-2 cells; assay: In vitro anti-proliferative assay (CCK8), WSU-DLCL-2; details: Homo sapiens, WSUDLCL2, 72 h, read-out: IC50 WSU-DLCL-2
[8] = system: K562 cells; assay: In vitro anti-proliferative assay (CCK8), K562; details: Homo sapiens, K562, 72 h, read-out: IC50 K562

Chain of HDAC1 (Q13547 whole entry): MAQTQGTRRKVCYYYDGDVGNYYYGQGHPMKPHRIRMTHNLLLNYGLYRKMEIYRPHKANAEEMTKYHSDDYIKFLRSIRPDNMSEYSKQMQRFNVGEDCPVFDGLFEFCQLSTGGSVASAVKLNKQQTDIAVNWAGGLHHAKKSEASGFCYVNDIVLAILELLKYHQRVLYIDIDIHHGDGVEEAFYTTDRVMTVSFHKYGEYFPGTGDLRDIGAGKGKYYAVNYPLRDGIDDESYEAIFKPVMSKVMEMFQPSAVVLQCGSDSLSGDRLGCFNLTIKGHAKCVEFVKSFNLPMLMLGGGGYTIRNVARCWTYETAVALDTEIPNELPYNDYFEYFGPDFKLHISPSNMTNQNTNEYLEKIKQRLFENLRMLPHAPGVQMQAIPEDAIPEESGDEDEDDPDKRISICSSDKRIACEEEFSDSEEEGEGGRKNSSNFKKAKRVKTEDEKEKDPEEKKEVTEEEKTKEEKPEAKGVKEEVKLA

IC50 [1]: 9 ± 4 nM
IC50 ([2]; Homo sapiens, MV4-11, 72 h, read-out: IC50 MV4-11, leukaemia cell line, 72 h, CCK8): < 1650 nM
IC50 ([2]; read-out: IC50 MV4-11, leukaemia cell line, 72 h, CCK8): 1000 ± 50 nM
IC50 ([3]; Homo sapiens, SU-DHL-2, 72 h, read-out: IC50 SU-DHL-2, lymphoma cell line, 72 h, CCK8): < 1550 nM
IC50 ([3]; read-out: IC50 SU-DHL-2, lymphoma cell line, 72 h, CCK8): 1410 ± 40 nM
IC50 [6]: 14 ± 1 nM
IC50 [8]: 3670 ± 500 nM
SMILES: C=C[C@]1(C)CC[C@@H](C(=C)Cn2cccn2)C[C@H]1C(=C)CN1CCN(C(=O)CCCCCCC(=O)NO)CC1 [Compound 39f, 8–(4-(2-((1R,2S,5R)-5–(3-(1H-pyrazol-1-yl)prop-1-en-2-yl)-2-methyl-2-vinylcyclohexyl)allyl)piperazin-1-yl)-N-hydroxy-8-oxooctanamide]
IC50 [4]: 2010 ± 270 nM
cell proportion of G1 phase ([5]; 1 μM): 54.55%
cell proportion of G2 phase ([5]; 1 μM): 7.07%
cell proportion of S phase ([5]; 1 μM): 37.21%
cell proportion of G1 phase ([5]; 5 μM): 70.18%
cell proportion of G2 phase ([5]; 5 μM): 1.31%
cell proportion of S phase ([5]; 5 μM): 27.83%
IC50 [7]: 1590 ± 420 nM
